Data taken from the supplement of paper PMC8728848.
Some of the results follow.

Legend:
Assay in all cases: glycan array binding signal (z-score within array); higher = stronger binding
Settings in all cases: glycan notation: IUPAC condensed, linker removed
[1] = biological target: Fuc(a1-3)[GalNAc(b1-4)]GlcNAc
Procedure, shortened: (§1)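 The binding signal is a Z-score computed within each array. Data were drawn from 3228 arrays in the Consortium for Functional Glycomics database, restricted to those with a known protein sequence. Scores were averaged over arrays of the same protein sequence at different concentrations or buffers, and over linkers, and negative values can be taken as non-binding.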

[2] = biological target: Fuc(a1-4)GlcNAc
Procedure, shortened: as §1

[3] = biological target: Fuc(b1-3)GlcNAc
Procedure, shortened: as §1

[4] = biological target: Gal(a1-2)Gal
Procedure, shortened: as §1

[5] = biological target: Gal(a1-3)Gal
Procedure, shortened: as §1

[6] = biological target: Gal(a1-3)Gal(b1-3)GlcNAc
Procedure, shortened: as §1

[7] = biological target: Gal(a1-3)Gal(b1-4)Glc
Procedure, shortened: as §1

[8] = biological target: Gal(a1-3)Gal(b1-4)GlcNAc
Procedure, shortened: as §1

[9] = biological target: Gal(a1-3)Gal(b1-4)[Fuc(a1-3)]GlcNAc
Procedure, shortened: as §1

[10] = biological target: Gal(a1-3)GalNAc
Procedure, shortened: as §1

[11] = biological target: Gal(a1-3)[Gal(a1-4)]Gal(b1-4)GlcNAc
Procedure, shortened: as §1

[12] = biological target: Gal(a1-4)Gal(b1-4)Glc
Procedure, shortened: as §1

[13] = biological target: Gal(a1-4)Gal(b1-4)GlcNAc
Procedure, shortened: as §1

[14] = biological target: Gal(a1-4)GlcNAc
Procedure, shortened: as §1

[15] = biological target: Gal(a1-6)Glc
Procedure, shortened: as §1

[16] = biological target: Gal(b1-2)Gal
Procedure, shortened: as §1

[17] = biological target: Gal(b1-3)Gal
Procedure, shortened: as §1

[18] = biological target: Gal(b1-3)Gal(b1-4)GlcNAc
Procedure, shortened: as §1

[19] = biological target: Gal(b1-3)GalNAc
Procedure, shortened: as §1

[20] = biological target: Gal(b1-3)GalNAc(b1-3)Gal(a1-4)Gal(b1-4)Glc
Procedure, shortened: as §1

[21] = biological target: Gal(b1-3)GalNAc(b1-4)Gal(b1-4)Glc
Procedure, shortened: as §1

[22] = biological target: Gal(b1-3)GalNAc(b1-4)[Neu5Ac(a2-3)]Gal(b1-4)Glc
Procedure, shortened: as §1

[23] = biological target: Gal(b1-3)GlcNAc
Procedure, shortened: as §1

[24] = biological target: Gal(b1-3)GlcNAc(b1-2)Man(a1-3)[Gal(b1-3)GlcNAc(b1-2)Man(a1-6)]Man(b1-4)GlcNAc(b1-4)GlcNAc
Procedure, shortened: as §1

[25] = biological target: Gal(b1-3)GlcNAc(b1-3)Gal(b1-3)GlcNAc
Procedure, shortened: as §1

[26] = biological target: Gal(b1-3)GlcNAc(b1-3)Gal(b1-4)Glc
Procedure, shortened: as §1

[27] = biological target: Gal(b1-3)GlcNAc(b1-3)Gal(b1-4)GlcNAc
Procedure, shortened: as §1

[28] = biological target: Gal(b1-3)[Fuc(a1-4)]GlcNAc
Procedure, shortened: as §1

[29] = biological target: Gal(b1-3)[Fuc(a1-4)]GlcNAc(b1-3)Gal(b1-3)[Fuc(a1-4)]GlcNAc
Procedure, shortened: as §1

[30] = biological target: Gal(b1-3)[Fuc(a1-4)]GlcNAc(b1-3)Gal(b1-4)GlcNAc
Procedure, shortened: as §1

[31] = biological target: Gal(b1-3)[Fuc(a1-4)]GlcNAc(b1-3)Gal(b1-4)[Fuc(a1-3)]GlcNAc
Procedure, shortened: as §1

[32] = biological target: Gal(b1-3)[GlcNAc(b1-6)]GalNAc
Procedure, shortened: as §1

[33] = biological target: Gal(b1-3)[Neu5Ac(a2-6)]GalNAc
Procedure, shortened: as §1

[34] = biological target: Gal(b1-3)[Neu5Ac(a2-6)]GlcNAc(b1-6)Gal(b1-4)Glc
Procedure, shortened: as §1

[35] = biological target: Gal(b1-3)[Neu5Ac(b2-6)]GalNAc
Procedure, shortened: as §1

[36] = biological target: Gal(b1-4)GalNAc(a1-3)[Fuc(a1-2)]Gal(b1-4)GlcNAc
Procedure, shortened: as §1

[37] = biological target: Gal(b1-4)GalNAc(b1-3)[Fuc(a1-2)]Gal(b1-4)GlcNAc
Procedure, shortened: as §1

[38] = biological target: Gal(b1-4)Glc
Procedure, shortened: as §1

[39] = biological target: Gal(b1-4)Glc6S
Procedure, shortened: as §1

[40] = biological target: Gal(b1-4)GlcNAc
Procedure, shortened: as §1

[41] = biological target: Gal(b1-4)GlcNAc(a1-6)Gal(b1-4)GlcNAc
Procedure, shortened: as §1

[42] = biological target: Gal(b1-4)GlcNAc(b1-2)Man(a1-3)[Gal(b1-4)GlcNAc(b1-2)Man(a1-6)]Man(b1-4)GlcNAc(b1-4)GlcNAc
Procedure, shortened: as §1

[43] = biological target: Gal(b1-4)GlcNAc(b1-3)Gal(b1-3)GlcNAc
Procedure, shortened: as §1

[44] = biological target: Gal(b1-4)GlcNAc(b1-3)Gal(b1-4)Glc
Procedure, shortened: as §1

[45] = biological target: Gal(b1-4)GlcNAc(b1-3)Gal(b1-4)GlcNAc
Procedure, shortened: as §1

B1: Ficolin A (Rattus norvegicus), Q9WTS8 (protein)
chain: MWWPMLWAFPVLLCLCSSQALGQESGACPDVKIVGLGAQDKVAVIQSCPSFPGPPGPKGEPGSPAGRGERGLQGSPGKMGPPGSKGEPGTMGPPGVKGEKGERGTASPLGQKELGDALCRRGPRSCKDLLTRGIFLTGWYTIYLPDCRPLTVLCDMDVDGGGWTVFQRRVDGSINFYRDWDSYKRGFGNLGTEFWLGNDYLHLLTANGNQELRVDLREFQGQTSFAKYSSFQVSGEQEKYKLTLGQFLEGTAGDSLTKHNNMAFSTHDQDNDTNGGKNCAALFHGAWWYHDCHQSNLNGRYLPGSHESYADGINWLSGRGHRYSYKVAEMKIRAS
glycan array binding signal (z-score) [1]: -0.106 | glycan array binding signal (z-score) [2]: -0.098 | glycan array binding signal (z-score) [3]: -0.058 | glycan array binding signal (z-score) [4]: -0.077 | glycan array binding signal (z-score) [5]: -0.039 | glycan array binding signal (z-score) [6]: -0.094 | glycan array binding signal (z-score) [7]: -0.071 | glycan array binding signal (z-score) [8]: -0.059 | glycan array binding signal (z-score) [9]: -0.105 | glycan array binding signal (z-score) [10]: -0.094 | glycan array binding signal (z-score) [11]: -0.082 | glycan array binding signal (z-score) [12]: -0.092 | glycan array binding signal (z-score) [13]: -0.084 | glycan array binding signal (z-score) [14]: -0.12 | glycan array binding signal (z-score) [15]: -0.065 | glycan array binding signal (z-score) [16]: -0.012 | glycan array binding signal (z-score) [17]: -0.09 | glycan array binding signal (z-score) [18]: -0.034 | glycan array binding signal (z-score) [19]: -0.063 | glycan array binding signal (z-score) [20]: -0.1 | glycan array binding signal (z-score) [21]: -0.049 | glycan array binding signal (z-score) [22]: -0.075 | glycan array binding signal (z-score) [23]: -0.008 | glycan array binding signal (z-score) [24]: -0.109 | glycan array binding signal (z-score) [25]: -0.083 | glycan array binding signal (z-score) [26]: -0.058 | glycan array binding signal (z-score) [27]: -0.064 | glycan array binding signal (z-score) [28]: -0.069 | glycan array binding signal (z-score) [29]: -0.085 | glycan array binding signal (z-score) [30]: -0.073 | glycan array binding signal (z-score) [31]: -0.113 | glycan array binding signal (z-score) [32]: -0.108 | glycan array binding signal (z-score) [33]: -0.123 | glycan array binding signal (z-score) [34]: -0.085 | glycan array binding signal (z-score) [35]: -0.093 | glycan array binding signal (z-score) [36]: -0.03 | glycan array binding signal (z-score) [37]: -0.087 | glycan array binding signal (z-score) [38]: -0.013 | glycan array binding signal (z-score) [39]: -0.092 | glycan array binding signal (z-score) [40]: -0.1 | glycan array binding signal (z-score) [41]: -0.095 | glycan array binding signal (z-score) [42]: -0.116 | glycan array binding signal (z-score) [43]: -0.104 | glycan array binding signal (z-score) [44]: -0.081 | glycan array binding signal (z-score) [45]: 0.135
